{
  "source": "ChEMBL document CHEMBL1201862",
  "about": "“PubChem BioAssay data set” (2004)",
  "note": "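Each compound was tested at five concentrations against cells in 96-well plates for 48 hours. The concentration for 50% growth inhibition is given as GI50.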 The source made the active and inactive calls. Rule as the data show it: active = GI50 up to about 1.1 µM and inactive = higher. Numbered stars: 1 amine (or outer) side, 2 acyl side, 3 side chain; on linkers, the order of the positions; unused ones are H or OH. Bridge positions count the residues as written; N and C are the ends. Square brackets hold non-standard residues; d marks the D form. Peptide text beside a SMILES is read from it. I, II: the chains in the order shown. Actinocin(1to9) = Cc1c2oc3c(C)ccc(C(=O)[*:2])c3nc-2c(C(=O)[*:1])c(N)c1=O; NMeV = CN[CH](C(=O)O)C(C)C; Sar = CNCC(=O)O",
  "data": [
    {"system": "NCI-H322M", "assay": "NCI-60 cell line screen, 48 h", "values": [
      {"compound": "Cc1cc(O)c2c(c1O)C(=O)c1cccc(O)c1C2=O", "note": "[ISLANDICIN]", "GI50": "inactive: > 100 µM"},
      {"compound": "C[C@]12C=CC(=O)C=C1CC[C@@H]1[C@@H]2C(=O)C[C@@]2(C)[C@H]1CC[C@]2(O)C(=O)CO", "note": "[PREDNISONE]", "GI50": "inactive: > 100 µM"},
      {"compound": "COc1ccc2[nH]c3c(C)c4ncccc4c(C)c3c2c1", "GI50": "inactive: 5.46 µM"},
      {"compound": "O=C(/C=C/c1cccc(Oc2ccccc2)c1)NCc1ccc(C(=O)NCc2ccccc2)cc1", "GI50": "inactive: > 100 µM"},
      {"compound": "Cc1nn(C(=O)Cc2ccccc2)c2c1C(c1ccc(O)cc1)SC(=N)N2", "note": "(stereo unspecified)", "GI50": "inactive: > 100 µM"},
      {"compound": "Cc1cc(C)cc(-n2c3nc(=O)n(C)c(=O)c-3nc3ccccc32)c1", "GI50": "inactive: 30.5 µM"},
      {"compound": "O=C(Nc1cccc(Cl)c1)Nn1cnnc1", "GI50": "inactive: > 100 µM"},
      {"compound": "CC(=O)c1cccc(NC2C(N)C(NC(=O)N(C)C)(C(C)O)C(C)(O)C2(O)COC(=O)c2c(C)cccc2O)c1", "note": "(stereo unspecified)", "GI50": "active: 0.0124 µM"},
      {"compound": "O=C(O)C1Cc2c([nH]c3ccccc23)C(CCCCO)N1", "note": "(stereo unspecified)", "GI50": "inactive: > 100 µM"},
      {"compound": "Cc1csc(NCc2ccc(Cl)cc2)n1", "GI50": "inactive: > 100 µM"},
      {"compound": "C[Si](C)(C)/C=C/CN1C(=O)CCC1=O", "GI50": "inactive: > 100 µM"},
      {"compound": "CN(C)Cc1cc(/C=C/C(=O)c2ccc(Br)cc2)cc(CN(C)C)c1O", "GI50": "inactive: 24.2 µM"},
      {"compound": "O=C(/C=C/c1ccccc1O)c1ccc([N+](=O)[O-])cc1", "GI50": "inactive: 17.2 µM"},
      {"compound": "CC(=O)Oc1ccc(-c2nnc(-c3ccc(OC(C)=O)cc3)nn2)cc1", "GI50": "inactive: > 100 µM"},
      {"compound": "O=S(=O)(Nc1nccs1)c1ccc([As](=O)(O)O)cc1", "GI50": "inactive: > 100 µM"},
      {"compound": "O=C(Nc1nccs1)c1cc(C2=CC=CC([N+](=O)[O-])C=C2)nc(S)n1", "note": "(stereo unspecified)", "GI50": "inactive: > 100 µM"},
      {"compound": "Cn1c(=O)c2ccc(-c3ccc(Br)cc3)nc2n(C)c1=O", "GI50": "inactive: > 100 µM"},
      {"compound": "COc1cc(CNc2ccc(C(C)C)cc2)cc(OC)c1OC", "GI50": "inactive: 32.6 µM"},
      {"compound": "COc1ccc2nc3cc(Cl)ccc3c(Nc3ccc(O)c(CN4CCN(C)CC4)c3)c2c1", "GI50": "inactive: 1.71 µM"},
      {"compound": "Cc1ccc2oc3c(ccc(=O)n3C)c(=O)c2c1", "GI50": "inactive: > 100 µM"},
      {"compound": "COc1ccc(/N=C2\\C(=N/c3ccc(OC)cc3)N(c3ccc(N(C)C)cc3)C(=S)N2c2ccc(OC)cc2)cc1", "GI50": "inactive: > 80 µM"},
      {"compound": "CCOC(=O)c1c(CN2CCNCC2)nc2ccccc2c1-c1ccccc1", "GI50": "inactive: 15 µM"},
      {"compound": "O=C1OC(CCCl)(c2ccccc2)CC1CN1CCOCC1", "note": "(stereo unspecified)", "GI50": "inactive: 43 µM"},
      {"compound": "O=C(NCCO)c1ccc([N+](=O)[O-])cc1", "GI50": "inactive: > 100 µM"},
      {"compound": "OC(CCN1CCN(CCOC(c2ccc(F)cc2)c2ccc(F)cc2)CC1)c1ccc(Br)cc1", "note": "(stereo unspecified)", "GI50": "inactive: 11 µM"},
      {"compound": "CSc1nc(C)cc(Nc2ccc(O)c(CN3CCCCC3)c2)n1", "GI50": "inactive: 35.1 µM"},
      {"compound": "NCCCCN(CCCN)Cc1ccc2ccccc2c1", "GI50": "inactive: 35.4 µM"},
      {"compound": "Cc1ccc2nc(N/N=C/c3ccc(C)s3)cc(C)c2c1", "GI50": "inactive: 3.26 µM"},
      {"compound": "CCC(C)C1NC(=O)C(NC(=O)c2c3nc4c(C(=O)NC5C(=O)NC(C(C)C)C(=O)N6CCCC6C(=O)N(C)CC(=O)N(C)C(C(C)C)C(=O)OC5C)ccc(C)c4oc-3c(C)c(=O)c2N)C(C)OC(=O)C(C(C)C)N(C)C(=O)CN(C)C(=O)C2CCCN2C1=O", "note": "(stereo unspecified) (I: TIP[Sar][NMeV] / II: TVP[Sar][NMeV]; ester I:1-I:C, II:1-II:C; linker I:N-II:N via Actinocin(1to9); configuration not given here)", "GI50": "active: 0.000107 µM"},
      {"compound": "Cc1cc(=O)n(-c2c(C)cccc2Cl)c(/C=C(\\O)c2ccncc2)n1", "GI50": "inactive: > 100 µM"},
      {"compound": "COc1ccc(C2SC(=N)Nc3c2c(C)nn3C(=O)c2ccncc2)cc1", "note": "(stereo unspecified)", "GI50": "inactive: > 100 µM"},
      {"compound": "CC(NC(=O)/C(C#N)=C/c1ccc2[nH]ccc2c1)c1ccccc1", "note": "(stereo unspecified)", "GI50": "inactive: 22.5 µM"},
      {"compound": "N=C(N)NNC(=O)CCn1[nH]c(=O)c(Cl)c(Cl)c1=O", "GI50": "inactive: > 100 µM"},
      {"compound": "CC(=O)O[C@H]1CC[C@@]2(C)C(=CC[C@H]3[C@@H]4CC[C@H](c5cc(C(F)(F)F)n(C(C)=O)n5)[C@@]4(C)CC[C@@H]32)C1", "GI50": "inactive: 11.2 µM"},
      {"compound": "Nc1ncnc2c1ncn2[C@@H]1O[C@H](COP(=O)(O)OP(=O)(O)OC[C@H]2O[C@@H](OCCCO)[C@H](O)[C@@H]2O)[C@@H](O)[C@H]1O", "GI50": "inactive: 94.6 µM"},
      {"compound": "CCOc1cc2c(cc1OC(C)=O)C(=O)CC[C@H]1C3CC[C@H](OC(C)=O)[C@@]3(C)CC[C@H]21", "note": "(stereo partly specified)", "GI50": "inactive: > 100 µM"},
      {"compound": "O=S(=O)(/C=C/c1ccc(Cl)cc1Cl)Cc1ccccc1CS(=O)(=O)/C=C/c1ccc(Cl)cc1Cl", "GI50": "inactive: > 100 µM"},
      {"compound": "O=C1c2ccccc2C(=O)c2sc(Nc3cc(Cl)ccc3Cl)nc21", "GI50": "inactive: 14.8 µM"},
      {"compound": "C#C[C@]1(O)CC[C@H]2[C@@H]3CCC4=C/C(=N/CCOC(=O)c5cccc6c(=O)c7ccccc7[nH]c56)CC[C@@H]4[C@H]3CC[C@@]21C", "GI50": "inactive: 50.4 µM"},
      {"compound": "COc1c(C)c(C/C=C(\\C)CCCCO[Si](c2ccccc2)(c2ccccc2)C(C)(C)C)c(OC)c(OC)c1OC", "GI50": "inactive: > 100 µM"},
      {"compound": "O=C(c1ccccc1)n1cc(-c2ccccc2)c2c(=O)nc[nH]c21", "GI50": "inactive: > 100 µM"},
      {"compound": "Oc1ccc(Cl)cc1Sc1cc(Cl)ccc1O", "note": "[FENTICLOR]", "GI50": "inactive: 22.4 µM"},
      {"compound": "C=CCNC1=C(C(=O)OCC)C(=O)CO1", "GI50": "inactive: > 100 µM"},
      {"compound": "CCN(CC)C(=O)N[C@@H](CC(C)C)C(=O)NC", "GI50": "inactive: > 100 µM"},
      {"compound": "CCOC(=O)C1C(=O)CN2CCc3c([nH]c4ccccc34)C12C(=O)OCC", "note": "(stereo unspecified)", "GI50": "inactive: > 100 µM"},
      {"compound": "Nc1ccn(C2OC(CO)C(O)C2(F)F)c(=O)n1", "note": "(stereo unspecified)", "GI50": "active: 0.635 µM"},
      {"compound": "COC(=O)/C=C1/OC(c2ccccc2)=C(Br)C1=O", "GI50": "inactive: > 100 µM"},
      {"compound": "CCCCCCCC/C=C1\\CCC(CN(C)C)C1=O", "note": "(stereo unspecified)", "GI50": "inactive: 16.9 µM"},
      {"compound": "CC(C)[Si](OC12CCC(CC1O)CC2CO)(C(C)C)C(C)C", "note": "(stereo unspecified)", "GI50": "inactive: 13.2 µM"},
      {"compound": "CCC(/C=C/c1ccccc1)=N\\NC(=S)N/N=C(/C=C/c1ccccc1)CC", "GI50": "inactive: > 100 µM"},
      {"compound": "O=[N+]([O-])c1cc(Cl)cc2cc(Cl)cnc12", "GI50": "inactive: > 100 µM"},
      {"compound": "CC1(CO)COS(=O)OC1", "note": "(stereo unspecified)", "GI50": "inactive: > 100 µM"},
      {"compound": "Nc1cc(S(=O)(=O)O)cc2cc(S(=O)(=O)O)c(/N=N/c3ccc(-c4ccc(/N=N/c5c(S(=O)(=O)O)cc6cc(S(=O)(=O)O)cc(N)c6c5O)cc4)cc3)c(O)c12", "GI50": "inactive: > 100 µM"},
      {"compound": "COc1ccc(C23C(=O)c4ccccc4N2O[C@H]2C(=O)N(c4ccccc4)C(=O)[C@H]23)cc1", "note": "(stereo partly specified)", "GI50": "inactive: > 100 µM"},
      {"compound": "CC(C)(C)OC(=O)N(CCCCNC(=O)C(F)(F)F)CCCNC(=O)C(F)(F)F", "GI50": "inactive: > 100 µM"},
      {"compound": "CCCNC(=O)Cn1c(-c2ccccc2)cc2ccccc21", "GI50": "inactive: > 100 µM"},
      {"compound": "CCNC(=S)N/N=C/c1ccccn1", "GI50": "inactive: 12.2 µM"},
      {"compound": "O=S(=O)([C-]([I+]c1ccccc1)S(=O)(=O)C(F)(F)C(F)(F)C(F)(F)C(F)(F)F)C(F)(F)C(F)(F)C(F)(F)C(F)(F)F", "GI50": "inactive: 16.7 µM"},
      {"compound": "COc1cc2[nH]c(=O)c3cc(-c4ccccc4)cc4c(Cl)nc(c1OC)c2c43", "GI50": "inactive: 29 µM"},
      {"compound": "CC1=NN(C(=O)c2ccccc2O)C(=O)/C1=C/c1c(O)ccc2ccccc12", "GI50": "active: 0.71 µM"},
      {"compound": "Cc1ccc2c(c1)SC1=Nc3sc4cc(C)ccc4[n+]3CN12", "GI50": "inactive: 17.8 µM"}
    ]}
  ]
}
